Sequences and labels used below:
T1: UNK ZnF1-3 (human, UniProt Q9C0B0 31-174)
T1 sequence: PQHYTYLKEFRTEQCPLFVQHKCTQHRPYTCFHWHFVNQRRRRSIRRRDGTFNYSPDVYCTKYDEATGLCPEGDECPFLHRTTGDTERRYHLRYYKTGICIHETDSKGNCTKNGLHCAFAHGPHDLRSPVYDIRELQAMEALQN

B1: chrX:131338992:131338993:-_ENSMUSG00000033436_ENSMUST00000035559|mus_mus|FALSE|FALSE (ssRNA)
RNA: GGGAGUUCUACAGUCCGACGAUCUAUCACAGAUAACAUCACUCUGAAUUAUUCAAACGUGGCAUCUGAAUAAUUCCUGUACUACACACACAAGUAGAAAAACAAUAGUGUCUCACUGUUAAUGCUUCCCGAGUGUAAAACCGACAACAGAGGAUUGAGCAUCA
B2: chr4:34758383:34758384:-_ENSMUSG00000039967_ENSMUST00000047950|mus_hu|motif|central (ssRNA)
RNA: GGGAGUUCUACAGUCCGACGAUCCUCAUCAUCUGAACCAUCAUUGUCAUUAAACACUAUAAAAUCUGUUGAAUAGAGACGGUUCUUUUUUAUAGGUCGCUGCUCCUGUUUAGCCACAGUAUUAGUCUUCUGAUUUUCAUUGGUCAACAGAGGAUUGAGCAUCA
B3: 118615098_118619259_2033_CDS_ENSG00000135090_ENST00000392533|human|control|control (ssRNA)
RNA: GGGAGUUCUACAGUCCGACGAUCCUGGAACUUCUUCUCAUCUGCUGCAGCUACCUUUGCCUCCUUUUCUAUGAUAGCCACUUGCUUCUUGGCCAGCUUCUCCAGCUCGAUGGACGAGUUGUUGGCAUGCGUCUCCACCUCCUUCAACAGAGGAUUGAGCAUCA
B4: chr8:27055589:27055590:-_ENSMUSG00000037260_ENSMUST00000037609|mus_hu|FALSE|FALSE (ssRNA)
RNA: GGGAGUUCUACAGUCCGACGAUCUUCCCUUUAACAAAGGCUGCUUCAGUCCUCCCUGCAGGCCUACUAGAGUCUUCCAGCAGCACAUCUCAGUGGGAGCCAUCAGAUUUUCCAAAAAAUCUUCUUUCUAUAGAGGAUGUAGGCCAACAGAGGAUUGAGCAUCA
B5: chr1:29344887:29344888:+_ENSG00000159023_ENST00000356093|perfect_dup|FALSE|FALSE (ssRNA)
RNA: GGGAGUUCUACAGUCCGACGAUCUUCCAUGACCUUUUCUUCAAGUUCCUUGGUCUGAUUUGGAGCCAGUUUAAAAUCACUAACAUAAUCCAUGCCGUGCAGUUCUGGGUCAUAGUCUCCCAGCUCAGACUGGAUCGUGUAAGACAACAGAGGAUUGAGCAUCA
B6: chr1:182792627:182792628:+_ENSMUSG00000038806_ENSMUST00000038091|mus_mus|FALSE|FALSE (ssRNA)
RNA: GGGAGUUCUACAGUCCGACGAUCAGAGUGUGUACCAGAGGCCGAGCUCCGAGGACUGCCAGGUCGGUCGGCUGCCACCUCUACAGCAUCAAUGCCGUCUUCCCGAGCACAGCAGCUCUGCUCCGAAGUCCCAGGAGCAUCCUCCAACAGAGGAUUGAGCAUCA
B7: chr9:42776281:42776282:-_ENSMUSG00000059495_ENSMUST00000165665|mus_mus|FALSE|FALSE (ssRNA)
RNA: GGGAGUUCUACAGUCCGACGAUCAAACCUCCUCAAGUCUGCAACUCUCCCACCCACCCCCCAUAGCACCCCCACCACCACUAAGCAUUCCAUUCCUUUGUUCCUAUUUCCUGCUCACUCUGCAGGGAAUAUUUCAUACAAGUGCAACAGAGGAUUGAGCAUCA
B8: 21971185_22002819_1936_CDS_ENSG00000078403_ENST00000307729|human|control|control (ssRNA)
RNA: GGGAGUUCUACAGUCCGACGAUCUUGUUGCAAAUGCCCAGAAGACUGCUGAGGUAAGUGAGAGCUGGAGACAGGAGUACUAGAUCCCGAGCCAGAUACUACAUUUGGAAACGAUACUGCUACAUCAUUGCUGUUAUAAAUACCCAACAGAGGAUUGAGCAUCA
B9: 117817058_117819199_2538_CDS_ENSMUSG00000033326_ENSMUST00000106406|mouse|control|control (ssRNA)
RNA: GGGAGUUCUACAGUCCGACGAUCUGCCACUGCACAUGAAACAUGAACCCAUCUGUCGUCAUUGGCUCUCUGCAGGGCCCCUCCACGCAACGAGCAUAAGCAGCAGUCUUCCUCCAGGGCAUUGGCUGAACAUCGAGAGCACAUCAACAGAGGAUUGAGCAUCA
B10: 120681885_120682005_713_CDS_ENSMUSG00000025153_ENSMUST00000055655|mouse|control|control (ssRNA)
RNA: GGGAGUUCUACAGUCCGACGAUCCAUGCCCAGCUUCAUGAACUGCACAGAGGUGUUCGGCUUCAGGAGCAGGUUGAUCCCACCCACAAGGGCCGCGGGGCAUUCCCCACUACGGAUGGCCUGGUAGGCAUUCUGUAGUGCCAGCAACAGAGGAUUGAGCAUCA
B11: chr15:93570553:93570554:+_ENSG00000173575_ENST00000394196|hu_mus|FALSE|FALSE (ssRNA)
RNA: GGGAGUUCUACAGUCCGACGAUCUCGUUUUCUAGGGCCACAGUGCAUCAUAGGACUUCAGGACUUGACAACAUUCACACAUAACUUCCUCCAAGUCCUGCCACUUCCUCAAUGAUGAGCAGCUGCCCAAAGCCAGGCCCCACACAACAGAGGAUUGAGCAUCA
B12: chr11:121178941:121178942:+_ENSG00000109929_ENST00000392789|hu_hu|motif|central (ssRNA)
RNA: GGGAGUUCUACAGUCCGACGAUCACAUAUUUUUACUCUUAUUAAAUAAUGGUUUUAAAUAAUAAUCAUCACAAUGUUUAGCGGCAUAAUCCCAGAUCUGGAUUAAAUCAUGGUGAUAUCGAUAUUUUUAAAUUCCAAUUUAUUCAACAGAGGAUUGAGCAUCA
B13: chr19:55172049:55172050:-_ENSMUSG00000024978_ENSMUST00000061856|mus_mus|motif|central (ssRNA)
RNA: GGGAGUUCUACAGUCCGACGAUCGGUGUGUUUACAUCGGCCAAGGCUGUAUUCCGAUGAACUGGGCAGAUAAGAAACGUCGGUUGUGCCAACUGUCACUGAAGACUCCUCCAUGGCAGAACGUGCAAGUCCCAAACCAUGUGCCAACAGAGGAUUGAGCAUCA
B14: 80042564_80042684_1340_CDS_ENSMUSG00000042428_ENSMUST00000044970|mouse|control|control (ssRNA)
RNA: GGGAGUUCUACAGUCCGACGAUCGAAGCACCAGGAGCAAUGCCAGCCCGCGAAGUGCAGGGGGCUGCCGAGAGACCACUGCACUAGGAUGUGGCCGGUGCGGUUCUCAUACUGCCGGAAGUUGGGCAUGGUGUAGUACUGGCGCAACAGAGGAUUGAGCAUCA
B15: chr8:9988343:9988344:+_ENSMUSG00000040396_ENSMUST00000048216|mus_hu|FALSE|FALSE (ssRNA)
RNA: GGGAGUUCUACAGUCCGACGAUCAGUUUUUGCCAUUUCUUCAGGAGAAUGGCUCUUUACGACUUCUUUGAUGAACUGUUCAAGUGCAGUGAAAUAGCCUUGGCACUGCCAUGUGUCAUUGUGAGUCCCAUCUGGAAAAAUGGCCAACAGAGGAUUGAGCAUCA
B16: 74476496_74476616_631_3pUTR_ENSMUSG00000021577_ENSMUST00000022062|mouse|control|control (ssRNA)
RNA: GGGAGUUCUACAGUCCGACGAUCUUCCAUACAACGUGUGUAAGAGUGAGUGGCCUGUCCGAUCAGCCACACAGCAACACCGAUGAGCCUGCCCGCCUUUCCCAAACUUGAGGCUCUGUCCACCAAAUGCACGCUGAUAAAUCUCAACAGAGGAUUGAGCAUCA
B17: 94664804_94666374_605_3pUTR_ENSMUSG00000038902_ENSMUST00000107270|mouse|control|control (ssRNA)
RNA: GGGAGUUCUACAGUCCGACGAUCGUACAGGCCGAACAUUCCUUACAGGAAAUCCCUGGGUAGUGAUGAAGAUAGGUUGUGAGGCCACAGGGGAGCUAGUCACAUGAUUGGCAUUCUGCAUGACCUGGACAGGUCUCAAUACUGCAACAGAGGAUUGAGCAUCA
B18: chr11:4040516:4040517:+_ENSMUSG00000003581_ENSMUST00000003677|mus_hu|motif|central (ssRNA)
RNA: GGGAGUUCUACAGUCCGACGAUCCUGAGGACCGGGGUGCAGGCAGGAAGGGUCCAUCCCCAUGUGCAGAGUCCAGCUGGGCAGCGGAUCAUCGGAGUAGCGGUUCCCCAGGACGUUGAAUUUGCACAGUGGGCAGGUCUGCUGCAACAGAGGAUUGAGCAUCA
B19: 193332704_193332824_519_CDS_ENSG00000198836_ENST00000392438|human|control|control (ssRNA)
RNA: GGGAGUUCUACAGUCCGACGAUCGGCUGUGUAGCCACCCCCAACAGCCGAUCCUAGUAUGAGAUAGCGAAGUUUUAAGAGUCUCGUAGCUAAUCUUGCUGGCCAAAAAUUCCUGCGAGGCUGGUAGCCAUAUUUAAUUGGAGACAACAGAGGAUUGAGCAUCA
B20: chr11:97639285:97639286:-_ENSMUSG00000071415_ENSMUST00000103146|mus_hu|FALSE|FALSE (ssRNA)
RNA: GGGAGUUCUACAGUCCGACGAUCAGCAAUUGGAAGAUGCUGAAAGUCUGCAAACUCACAAAAAAGCAAGGAUUGCUUUAAAAAAAAAAUGCCCAGAGUUUCCAUUUCAGAAAAGUGAUGGUCAGGGUAUGUCAAAAACACUGUCAACAGAGGAUUGAGCAUCA
B21: chr1:163117127:163117128:-_ENSG00000143248_ENST00000313961|hu_mus|hu_hu_hu_mus_False|18_58 (ssRNA)
RNA: GGGAGUUCUACAGUCCGACGAUCUGCUACAAAGGAUGUAACUCAACUCACAGGGCAACUUUUGGAAGCCUGACCAGAUUACUACUUGAUUAGCUCCUUAUAAAAUUCAGAGCGCACAAAGCGAGGCAGAGAAUCCUUCUCCAUCAACAGAGGAUUGAGCAUCA
B22: chr6:40197388:40197389:+_ENSMUSG00000057716_ENSMUST00000061740|mus_mus|mus_mus_mus_hu_False|58_78 (ssRNA)
RNA: GGGAGUUCUACAGUCCGACGAUCGAGACACUGGGGUGGAUUUAUUCCACCUCUGUUUGCUAGCCUCCCACUAAGACAGCUAUUUUGGGAUUCAUGGCCUUGAAUAUCAAGAGGGAAAGGAAGAGGAUGGAAAGAGUCAAGAGUCAACAGAGGAUUGAGCAUCA

The other results are listed elsewhere or left out.

For this assay, the target named is T1, UNK ZnF1-3. Kind of assay: nsRBNS (natural sequence RNA bind-n-seq); RBNS binding buffer (assumed for nsRBNS): 25 mM Tris pH 7.5, 150 mM KCl, 3 mM MgCl2, 0.01% Triton X-100, 500 ug/ml BSA, 20 U/ml SUPERase-In, 4 C; UNK is unkempt and MSI1 is Musashi-1; names of the RNAs are library labels; protein concentration not given here; high values mean tight binding.
With B1, the binding signal was 0.715 enrichment R.
The same measure for B2: 0.725 enrichment R; for B3: 0.519 enrichment R.
With B4 the figure was 1.28 enrichment R; with B5, 0.621 enrichment R.
With B6 the figure was 0.834 enrichment R; with B7, 0.778 enrichment R; with B8, 1.42 enrichment R.
In the case of B9, the binding signal was found to be 1.17 enrichment R.
The same measure for B10: 0.929 enrichment R; for B11: 0.79 enrichment R.
B12 returned a binding signal of 1.38 enrichment R.
With B13 the figure was 1.02 enrichment R; with B14, 0.712 enrichment R; with B15, 0.599 enrichment R.
Consider B16, for which the binding signal was 0.772 enrichment R.
The same measure for B17: 1 enrichment R.
The same measure for B18: 1.25 enrichment R; for B19: 0.977 enrichment R; for B20: 1.51 enrichment R.
With B21 the figure was 1.11 enrichment R; with B22, 1.54 enrichment R.
